# Measurements reported in PubChem BioAssay AID488969 (Vanderbilt High Throughput Screening Facility, 2010).
# In all, about 110,000 compounds were measured (“z-score”: median about -0.1, highest 2% from about 2 on). Some of the results follow.
# Molecular target: Metabotropic glutamate receptor 8 (Rattus norvegicus) (UniProt P70579)
# Test: rat mGluR8 modulators via GIRK flux, primary screen, cell-based, thallium flux, HTS (AID 488969)
# Conditions: HEK293 rat mGluR8, GIRK (G protein-gated inwardly rectifying potassium channel) thallium flux, FluoZin2; at 10 µM; stronger effect = higher value; submaximal glutamate (EC20) added with thallium
# Chain of UniProt P70579 (P70579 whole entry, looked up): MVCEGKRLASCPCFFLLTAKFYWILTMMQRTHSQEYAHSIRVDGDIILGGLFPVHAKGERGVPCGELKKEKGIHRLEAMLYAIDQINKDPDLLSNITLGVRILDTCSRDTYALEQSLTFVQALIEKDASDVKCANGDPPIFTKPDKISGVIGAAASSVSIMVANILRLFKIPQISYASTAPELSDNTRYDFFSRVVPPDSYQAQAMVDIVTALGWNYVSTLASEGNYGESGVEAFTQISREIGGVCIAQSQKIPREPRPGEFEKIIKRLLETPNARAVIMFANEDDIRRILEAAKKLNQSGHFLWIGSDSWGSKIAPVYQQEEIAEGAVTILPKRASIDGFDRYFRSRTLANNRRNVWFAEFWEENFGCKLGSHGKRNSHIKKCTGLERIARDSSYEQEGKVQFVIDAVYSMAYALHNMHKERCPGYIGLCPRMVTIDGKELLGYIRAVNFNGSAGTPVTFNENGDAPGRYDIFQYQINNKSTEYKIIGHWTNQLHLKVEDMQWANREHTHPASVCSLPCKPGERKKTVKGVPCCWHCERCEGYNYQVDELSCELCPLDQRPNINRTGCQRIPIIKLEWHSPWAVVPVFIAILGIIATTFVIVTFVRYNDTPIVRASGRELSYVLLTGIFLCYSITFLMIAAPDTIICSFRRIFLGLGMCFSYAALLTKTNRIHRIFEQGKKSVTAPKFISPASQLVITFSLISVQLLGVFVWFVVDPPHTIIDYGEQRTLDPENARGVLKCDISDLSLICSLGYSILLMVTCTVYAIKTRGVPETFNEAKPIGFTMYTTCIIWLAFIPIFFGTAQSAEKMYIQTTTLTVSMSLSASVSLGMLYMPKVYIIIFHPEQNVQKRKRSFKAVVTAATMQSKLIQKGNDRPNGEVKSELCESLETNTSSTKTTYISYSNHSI
row,SMILES,z-score
1,COc1cc(/C=C2/C(=O)NN(c3cccc(C)c3)C2=O)ccc1OC(=O)c1ccco1,-0.244
2,Clc1cccc(Oc2ncccn2)c1,-0.0109
3,O=C(c1ccc2ccccc2c1)N1CCN(c2ccc([N+](=O)[O-])c(N3CCOCC3)c2)CC1,-0.791
4,Cc1ccc(S(=O)(=O)c2cn(Cc3ccc(F)cc3)c3cc4c(cc3c2=O)OCO4)cc1,-0.295
5,CS/C(=N\NC(N)=O)c1ccccc1,-0.39
6,C/C(=C\C(=S)Nc1ccccc1)Nc1ccc2ccccc2c1,-0.168
7,CCOC(=O)/C=C/C(=O)Nc1ccccc1-c1ccccc1NC(=O)/C=C/C(=O)OCC,-0.138
8,Cc1nc2nc(-c3ccco3)nn2c(C)c1Cl,0.152
9,CCOC(=O)c1c(N)nn(C(C)=O)c1-c1ccccc1,0.536
10,Clc1ccc(-n2c(SCc3nc4ccccc4[nH]3)nnc2-c2ccncc2)cc1,0.063
11,CCOCCCNC(=O)c1cc(Sc2ccc(C)cc2)nc2ccccc12,-0.896
12,Cc1cc[n+](C2=C([O-])c3ccccc3C(=O)/C2=N\S(=O)(=O)c2cccs2)cc1C,-0.234
13,O=C(CSc1nc2ccccc2o1)c1ccccc1,-0.0752
14,Cc1nn(-c2ccccc2)cc1/C=N/O,0.614
15,CCOC(=O)C1CCCN(C(=O)c2cc(Nc3ccc(OC)c(OC)c3)nc3ccccc23)C1 (stereo not drawn),0.596
16,Cc1cc(C)nc(N2CCCC(C(=O)NCCc3cccc(F)c3)C2)n1 (stereo not drawn),-0.0417
17,COc1ccccc1Nc1ccc(Nc2ccccc2OC)nn1,2.82
18,Cc1ccc2nc(-c3ccccn3)cc(C(=O)NC3CCN(C)CC3)c2c1,0.0319
19,CCOC(=O)C1=NNC(C(=O)c2ccc(Cl)cc2)C1c1ccccc1 (stereo not drawn),-1.01
20,CCOCCCNC(=O)c1cccs1,-0.0746
21,Cc1cc(C)c2c(N)c(S(=O)c3ccc(C(C)(C)C)cc3)sc2n1 (stereo not drawn),-0.276
22,CC(C)(C)OC(=O)N1CCCC1C(=O)O (stereo not drawn),0.968
23,O=C(COc1cccc2ccccc12)NNC(=O)CSCCO,-0.199
24,COC(=O)N/N=C/c1c(C)nn(-c2cccc(Cl)c2)c1Cl,-0.272
25,CCOc1ccc(NS(=O)(=O)c2ccc3c(c2)CCN3C(=O)CCC(=O)O)cc1,-0.111

row,SMILES,z-score
1,CCOc1cc(/C=C2\C(=O)N(Cc3ccc(C)cc3)C(C)=C2C(=O)OC)ccc1O,-0.136
2,CCOC(=O)c1sc(NC(=O)CSc2nnc(-c3ccco3)o2)c(C(=O)OCC)c1C,-1.07
3,O=C(Cn1cc(C(=O)c2ccco2)c2ccccc21)NC1CCCC1,-0.0135
4,O=C(CCn1cnc2ccccc2c1=O)Nc1cccc(Cl)c1,0.128
5,CCOCc1nc(N)[nH]c(=O)c1Cc1ccc(OC(C)C)cc1,-0.264
6,Cc1occc1C(=O)NC(C)C1CCCO1 (stereo not drawn),0.0299
7,O=C(Nc1nncs1)C1c2ccccc2Oc2ccccc21,-0.171
8,CC(=O)c1cccc(NS(=O)(=O)c2ccc(N/C=C\C(=O)c3ccc(F)cc3)cc2)c1,0.0754
9,Cc1ccnc(NC(=S)NC(=O)/C=C/c2ccccc2)c1,-0.0726
10,O=C(O)CCC(=O)NCC1OCCc2ccccc21 (stereo not drawn),-0.0772
11,O=C(OCCCN1C(=O)c2ccccc2C1=O)c1ccco1,0.00586
12,COC(=O)c1sc(NC(=O)COc2ccccc2OC)nc1C,0.968
13,NNC(=O)Cc1cn(-c2ncc(C(F)(F)F)cc2Cl)c2ccccc12,-0.17
14,Cc1ccc(-c2nnc(-c3ccccc3)o2)cc1,-0.254
15,Cc1ccc(NC(=O)COC(=O)Cc2csc(-c3cccc(F)c3)n2)cc1C,-0.279
16,COC(=O)NC(NC(=S)Nc1ccccc1OC)C(Cl)(Cl)Cl (stereo not drawn),-0.165
17,Cc1cc(=O)oc2cc(OCC(=O)NCc3cccnc3)ccc12,-0.363
18,CCC(=O)N(Cc1cc2ccccc2[nH]c1=O)C(C)C,0.0128
19,O=C1OC(Nc2cc(Br)cc3cccnc23)c2ccccc21 (stereo not drawn),-0.139
20,N#C/C(=C1\CCCN1)c1nc2ccccc2c(=O)[nH]1,-0.0144
21,O=C(NCc1ccc(Cl)cc1Cl)c1ccccn1,-0.0328
22,C=C1c2cc(C)ccc2NC(=O)N1c1ccc(C)cc1,-0.68
23,O=[N+]([O-])c1ccc(Oc2c(F)c(F)nc(N3CCCC3)c2F)cc1,0.0329
24,Cc1nc2ccccc2c(=O)n1/N=C/c1cccnc1,0.936
25,CC(=O)c1ccc(NC(=O)COC(=O)c2ccccc2N=Nc2ccc(N(C)C)cc2)cc1,-0.29

row,SMILES,z-score
1,CC(C)(C)OC(=O)NCCCC(CCCNC(=O)OC(C)(C)C)C(=O)O,0.00715
2,O=C(CSc1nc(O)cc(=O)[nH]1)Nc1ccc2c(c1)CCC2,0.385
3,Cc1nn(C)cc1/C=N/NC(=O)c1ccc2c(c1)OCO2,0.196
4,COc1cc(C(=S)N2CCCCC2)ccc1OCC(=O)N1CCCC1,-0.248
5,Cc1n[nH]c(C)c1S(=O)(=O)N1CCN(C2CCCCC2)CC1,-0.213
6,O=C(NCCc1c[nH]c2ccccc12)C(=O)NCC(c1ccco1)N1CCN(c2ccccc2)CC1 (stereo not drawn),-0.273
7,ONC(=Nc1ccc(Cl)cc1)c1ccccc1Cl,-0.317
8,COc1ccccc1NS(=O)(=O)c1ccc(NN=C2CCCC2)c([N+](=O)[O-])c1,-0.0637
9,c1ccc2c(c1)OCC(c1csc3ncnc(N4CCCCC4)c13)O2 (stereo not drawn),0.241
10,Nc1nc(=S)[nH]c2c1C1(CCCC1)Cc1ccccc1-2,0.292
11,Cn1nnnc1SCC(=O)c1ccc(Br)s1,0.107
12,O=C(Nc1ccc(Cl)cc1)C1CCC(=O)N1Cc1ccccc1Cl (stereo not drawn),0.406
13,CCCOc1ccc(-c2nc(C#N)c(N3CCN(C)CC3)o2)cc1,0.0206
14,O=C(COc1cccc2ccccc12)NNC(=O)C1CCCO1 (stereo not drawn),-0.256
15,CCCn1c(SCC(=O)Nc2ccc(C)c(S(=O)(=O)N3CCOCC3)c2)n[nH]c1=O,-1.09
16,Cc1cc(NS(=O)(=O)c2ccc(NC(=S)NC(=O)c3ccc(Cl)cc3Cl)cc2)no1,-0.373
17,Cc1cc(OCC(=O)NCc2ccccn2)cc(C)c1Br,-0.0558
18,COc1ccc2nc(Nc3nc(-c4cc5ccccc5oc4=O)cs3)sc2c1,0.228
19,COc1cc2ccccc2cc1-c1nnc(COc2ccccc2)o1,-0.463
20,CCN1C(=O)/C(=C\c2cn(CCC#N)nc2-c2ccc(F)cc2)SC1=S,0.195
21,Cc1c(Cl)c([N+](=O)[O-])nn1CC(=O)Nc1ccc2c(c1)OCO2,-0.00978
22,CCCCCC(C)NC(=O)c1ccoc1C (stereo not drawn),-0.17
23,Cc1ccc(N2CN(Cc3cccnc3)CNC2=S)cc1,1.11
